Relative cell viability data for 82 compounds are collected here from the supplement of paper PMC10670038.

“And” between values parts separate entries of the source, which are not always exact repeats. Equal values may be shown once. Where a name gives a salt, the structure may show the parent alone. ± gives the standard deviation of the averaged measurements. In all, about 2,000 compounds were measured (“relative cell viability vs DMSO, compound alone”: median about 1.1, lowest 2% from about 0.29 on). Some of the results follow.

This test relates to TE10. The test is described as follows: relative cell viability vs DMSO, compound alone (fraction); TE10 is an esophageal squamous carcinoma line; higher = less cytotoxic. The conditions noted are these: 2 µM; 48 h. How it is done:
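TE10 ESCC cells (1,000/well, 384-well plates) were treated with Selleck bioactive library compounds at 2 uM alone for 48 h. Viability was read by CellTiter-Glo and expressed relative to DMSO wells. Two technical replicates (A, B).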
For `O=C(O)c1ccccc1Nc1cccc(C(F)(F)F)c1` [Flufenamic acid], the relative cell viability came to 1.21 ± 0.017. The compound `O=C(O)Cn1nnc(-c2cc(N3CCC(Oc4cc(F)ccc4Br)CC3)no2)n1` yielded a relative cell viability of 1.076 ± 0.005. `Cc1cccc(C)c1OCC(=O)N[C@@H](Cc1ccccc1)[C@@H](O)C[C@H](Cc1ccccc1)NC(=O)[C@H](C(C)C)N1CCCNC1=O` [Lopinavir] registered a relative cell viability of 1.05 ± 0.048. For `Clc1ccc(C(c2ccccc2Cl)C(Cl)Cl)cc1` (configuration not stated) [Mitotane], the relative cell viability is 0.94 ± 0.059. Compound `O=C1O[C@H]([C@@H](O)CO)C(O)=C1O` [Vitamin C] displayed a relative cell viability of 1.079 ± 0.0096. As for `CCCCN1CCCC[C@H]1C(=O)Nc1c(C)cccc1C` [Levobupivacaine HCl], the figure is 0.953 ± 0.13; as for `CCCc1cc2c(N3CCN(C4=NCC(C)(C)S4)CC3)ncnc2s1` [MI-2 (Menin-MLL Inhibitor)], 1.019 ± 0.0019. As for `CNCc1ccc(C)c(NC(=O)c2ccc(Nc3nc(-c4ccccc4)c4ccccc4n3)cc2)c1`, the figure is 0.817 ± 0.06; as for `COc1cc(CCc2cc(NC(=O)c3ccc(N4CC(C)NC(C)C4)cc3)n[nH]2)cc(OC)c1` (configuration not stated), 1.081 ± 0.01; as for `Nc1ccc(C(=O)O)c(O)c1` [Sodium 4-Aminosalicylate], 0.9162 ± 0.0012. The result for `O=C(CSc1nc2c(c(=O)n1-c1ccccc1)SCC2)Nc1ccc(-c2ccccc2)cn1` reads 1.09 ± 0.086. Regarding `CCOC(=O)CC(=O)N1CCSC1COc1ccccc1OC` (configuration not stated) [Moguisteine], the relative cell viability is 0.825 ± 0.061. As to `N#CC[C@H](C1CCCC1)n1cc(-c2ncnc3[nH]ccc23)cn1`, the relative cell viability was 1.14 and 0.808.

The compound `CN(C[C@@H]1COCCO1)S(=O)(=O)Nc1ccc2ccc3ncc(-c4cnn(C)c4)cc3c(=O)c2c1` came in with a relative cell viability of 1.04 ± 0.067. As for `CCCc1nn(C)c2c(=O)[nH]c(-c3cc(S(=O)(=O)N4CCN(C)CC4)ccc3OCC)nc12` [Sildenafil Citrate], the figure is 1.2 ± 0.029; as for `Cc1c(C(=O)N2CCOc3ccc(-c4ccc(N)nc4)cc3C2)ccc(S(C)(=O)=O)c1F`, 0.9185 ± 0.0061. In the case of `C[C@H](Nc1ncnc2nc[nH]c12)c1cc2cccc(Cl)c2c(=O)n1-c1ccccc1`, the relative cell viability is 0.906 ± 0.051. The result for `CC(C)(O)CC(=O)NCCn1ccc2ncnc(Nc3ccc(Oc4cccc(C(F)(F)F)c4)c(Cl)c3)c21` reads 1.17 ± 0.07; that for `CC(NCCc1ccc(O)cc1)C(O)c1ccc(O)cc1` (configuration not stated) [Ritodrine HCl], 1.1 ± 0.03; that for `CCC(C)C1OC2(CCC1C)CC1CC(CC=C(C)C(OC3CC(OC)C(OC4CC(OC)C(O)C(C)O4)C(C)O3)C(C)C=CC=C3COC4C(O)C(C)=CC(C(=O)O1)C34O)O2` (configuration not stated) [Ivermectin], 1.17 ± 0.087. Compound `CC(C)c1cnn2c(NCc3ccccc3)cc(NCCCCCCN)nc12` came in with a relative cell viability of 1.08 ± 0.063.

The compound `O=C(c1ccc(F)c(F)c1Nc1ccc(I)cc1F)N1CC(O)([C@@H]2CCCCN2)C1` [Cobimetinib (GDC-0973, RG7420)] registered a relative cell viability of 0.8481 ± 0.0073. Compound `O=S(=O)(c1cccc2cnccc12)N1CCCNCC1` [Fasudil (HA-1077) HCl] registered a relative cell viability of 1.09 ± 0.029. Turning to `COc1cc2nc(N3CCCN(C)CC3)nc(NC3CCN(Cc4ccccc4)CC3)c2cc1OC`, the relative cell viability came to 1.12 ± 0.022.

For the compound `CCS(=O)(=O)N1CC(CC#N)(n2cc(-c3ncnc4[nH]ccc34)cn2)C1`, the relative cell viability came out at 1.15 ± 0.046. `O=C1NCC2(CCN(CCc3ccccc3)CC2)O1` [Fenspiride HCl] had a relative cell viability of 1.05 ± 0.041. On to `Clc1ccc2c(c1)CCc1cccnc1C2=C1CCNCC1` [Desloratadine], for which the relative cell viability was determined as 1.1 ± 0.041. For `CC(C)c1ccccc1Cc1cc(C(=O)Nc2ccc(S(=O)(=O)c3ccccc3C(C)(C)C)cc2)c(O)c(O)c1O`, the relative cell viability is 0.707 ± 0.087.

`O=C(O)CCc1ccc(NCc2cccc(Oc3ccccc3)c2)cc1` showed a relative cell viability of 0.997 ± 0.012. `NC(=O)Nc1cc(-c2cccc(F)c2)sc1C(=O)N[C@H]1CCCNC1` came in with a relative cell viability of 0.259 ± 0.021. `C[C@H]1[C@H](C)CC[C@]2(C(=O)O)CC[C@]3(C)C(=CC[C@@H]4[C@@]5(C)CC[C@H](O)C(C)(C)[C@@H]5CC[C@]43C)[C@H]12` [Ursolic Acid] showed a relative cell viability of 0.991 ± 0.047. As for `C[C@H]1CO[C@@H]2Cn3cc(C(=O)NCc4ccc(F)cc4F)c(=O)c(O)c3C(=O)N12`, the figure is 1.109 ± 0.0039; as for `Nc1nccc(Oc2ccc(NC(=O)c3c[nH]cc(-c4ccc(F)cc4)c3=O)cc2F)c1Cl`, 1.121 ± 0.0081; as for `COc1c(C)cnc(Cn2cnc3c(Cl)nc(N)nc32)c1C`, 0.61 ± 0.039. `COc1ccc2c(Oc3ccc(NC(=O)c4c(C)n(CC(C)(C)O)n(-c5ccccc5)c4=O)nc3)ccnc2c1` had a relative cell viability of 1.02 ± 0.013. The result for `c1ccc2c(CCNc3ccc(Nc4ccncc4)cc3)c[nH]c2c1` reads 1.05 ± 0.091; that for `NCCCCCC(=O)O` [(6-)ε-Aminocaproic acid], 1.01 ± 0.02; that for `CC(C)CCNC(=O)[C@H](CC(C)C)NC(=O)[C@H]1O[C@@H]1C(=O)O` [Loxistatin Acid (E-64C)], 1.1 ± 0.019.

As to `CNCCc1ccccn1` [Betahistine 2HCl], the relative cell viability was 0.903 ± 0.18. In turn, `CC(C)Oc1ccc(-c2cnc3c(-c4ccnc5ccccc45)cnn3c2)cc1` came in with a relative cell viability of 1.19 ± 0.027. The compound `Cc1csc(-c2nnc(Nc3ccc(Oc4ncccc4-c4ccnc(N)n4)cc3)c3ccccc23)c1` came in with a relative cell viability of 0.926 ± 0.039.

Consider `Nc1nc2c(ncn2COC(CO)CO)c(=O)[nH]1` [Ganciclovir], for which the relative cell viability amounted to 1.069 ± 0.0057. The compound `Nc1ccccc1NC(=O)c1cnccn1` displayed a relative cell viability of 1.11 ± 0.037. Consider `C[C@]12C=CC(=O)N[C@@H]1CC[C@@H]1[C@@H]2CC[C@]2(C)[C@@H](C(=O)Nc3cc(C(F)(F)F)ccc3C(F)(F)F)CC[C@@H]12` [Dutasteride], for which the relative cell viability was found to be 1.22 ± 0.042.

Compound `Clc1cccc(Cl)c1NC1=NCCN1` [Clonidine HCl] registered a relative cell viability of 1.13 ± 0.095. Regarding `CN(C)S(=O)(=O)c1ccc2c(c1)/C(=C/c1cc3c([nH]1)CCCC3)C(=O)N2`, the relative cell viability stood at 0.915 ± 0.024. Take `CO[C@H]1/C=C/O[C@@]2(C)Oc3c(C)c(O)c4c(O)c(c5c(nc6cc(C)ccn65)c4c3C2=O)NC(=O)/C(C)=C\C=C\[C@H](C)[C@H](O)[C@@H](C)[C@@H](O)[C@@H](C)[C@H](OC(C)=O)[C@@H]1C` [Rifaximin]: the relative cell viability worked out at 1.05 ± 0.018. Consider `Cc1cnc(Nc2ccc(OCCN3CCCC3)cc2)nc1Nc1cccc(S(=O)(=O)NC(C)(C)C)c1`, for which the relative cell viability worked out at 0.906 ± 0.034. The compound `O=C(Cc1ccccc1)Nc1nnc(CCSCCc2nnc(NC(=O)Cc3ccccc3)s2)s1` came in with a relative cell viability of 0.866 ± 0.049. In turn, `COc1ccc(-c2nc(N3CCOCC3)c3sc(CN(C)c4ncc(C(=O)NO)cn4)cc3n2)cn1` yielded a relative cell viability of 0.0746 ± 0.0025. As for `COc1cc(-c2ncn(/C=C\C(=O)OC(C)C)n2)cc(C(F)(F)F)c1`, the relative cell viability turned out to be 0.26 ± 0.011.

As for `COc1ccc(Cl)c(Nc2nc3ccccc3nc2NS(=O)(=O)c2cccc(NC(=O)C(C)(C)N)c2)c1` [Pilaralisib (XL147)], the relative cell viability stood at 1.018 ± 0.0022.

Turning to `CCCNC(=O)NS(=O)(=O)c1ccc(Cl)cc1` [Chlorpropamide], the relative cell viability was found to be 1.12 ± 0.056. For the compound `COc1ccc(Oc2cc(C)c(-c3csc(NC(=O)c4ccncc4)n3)c(C)c2)cc1`, the relative cell viability was found to be 1.06 ± 0.018. As for `Cn1c(=O)c2c(ncn2CC2OCCO2)n(C)c1=O` [Doxofylline], the relative cell viability turned out to be 1.089 ± 0.0094. For the compound `Cc1ccc([C@@H]2O[C@H](CO)[C@@H](O)[C@H](O)[C@H]2O)cc1Cc1ccc(-c2ccc(F)cc2)s1` [Canagliflozin], the relative cell viability is 1.01 ± 0.097.

In turn, `CC(C)(C)c1cc(C(C)(C)C)c(NC(=O)c2c[nH]c3ccccc3c2=O)cc1O` [Ivacaftor (VX-770)] registered a relative cell viability of 1.03 ± 0.022. `CC(C)NC[C@@H](C(=O)N1CCN(c2ncnc3c2[C@H](C)C[C@H]3O)CC1)c1ccc(Cl)cc1` showed a relative cell viability of 0.74636 ± 0.00027. Regarding `COc1cccc(C=NCCN=Cc2cccc(OC)c2[O-])c1[O-].[Cl-].[Mn+3]`, the relative cell viability was 1.1 ± 0.05. For `COC(=O)Nc1nc2cc(Sc3ccccc3)ccc2[nH]1` [Fenbendazole], the relative cell viability came out at 0.672 ± 0.03. The result for `CCOC(=O)[C@H]1O[C@@H]1C(=O)N[C@@H](CC(C)C)C(=O)NCCC(C)C` [Aloxistatin] reads 1.09 ± 0.027. Compound `C=CC(=O)Nc1cccc(Sc2nc(Nc3ccc(N4CCN(C)CC4)cc3)ncc2Cl)c1` displayed a relative cell viability of 1.11 ± 0.022.

The compound `CCCCNc1ncc(C(=O)NCc2ccc(-n3ccnc3)cc2)c(NC2CCC(O)CC2)n1` (configuration not stated) came in with a relative cell viability of 1.19 ± 0.041. Compound `O=C(Nc1cccnc1)c1cc(-c2ccnc(F)c2)ccc1OCc1ccccc1` gave a relative cell viability of 1.1 ± 0.088. Take `O=C1CC[C@@H](C(=O)N2CSC[C@H]2C(=O)O)N1` [Pidotimod]: the relative cell viability is 1.02 ± 0.025.

The compound `Oc1c(Cl)cc(Cl)c2cccnc12` [Chloroxine] registered a relative cell viability of 0.9654 ± 0.0059.

Compound `c1ccc(-c2ccc(C(c3ccccc3)n3ccnc3)cc2)cc1` (configuration not stated) [Bifonazole] yielded a relative cell viability of 1.12 ± 0.038. Take `CN(C)CCC(c1ccc(Br)cc1)c1ccccn1` (configuration not stated) [Brompheniramine hydrogen maleate]: the relative cell viability is 1.15 ± 0.016. The compound `COc1ccc(Cl)cc1NC(=O)Nc1cc(C)nc2ccccc12` returned a relative cell viability of 1.1 ± 0.057. In turn, `COc1cc(Nc2c(C#N)cnc3cc(OCCCN4CCN(C)CC4)c(OC)cc23)c(Cl)cc1Cl` [Bosutinib (SKI-606)] gave a relative cell viability of 0.862 ± 0.039.

Compound `CCC1(c2ccccc2)C(=O)NCNC1=O` [Primidone] came in with a relative cell viability of 0.901 ± 0.089. As for `CCCCc1oc2ccc(NS(C)(=O)=O)cc2c1C(=O)c1ccc(OCCCN(CCCC)CCCC)cc1` [Dronedarone HCl], the figure is 0.848 ± 0.04; as for `Nc1ncnc2c1ncn2[C@@H]1O[C@H](CO)[C@@H](O)[C@@H]1O` [Vidarabine], 1.08 ± 0.033. As to `CC1CCN(CC[C@H]2CCCN2S(=O)(=O)c2cccc(O)c2)CC1`, the relative cell viability came to 1.06 ± 0.021. With `C=CC(=O)Nc1cccc(Oc2nc(Nc3ccc(N4CCN(C)CC4)cc3)ncc2Cl)c1`, the relative cell viability was 0.758 ± 0.011. With `C[C@@](Cc1ccc(O)c(O)c1)(NN)C(=O)O` [Carbidopa], the relative cell viability is 1.06 ± 0.081.

The compound `CCOc1nc2cccc(C(=O)O)c2n1Cc1ccc(-c2ccccc2-c2nnn[nH]2)cc1` [Candesartan] returned a relative cell viability of 1.11 ± 0.018. In turn, `CC(C)Oc1ccc2c(=O)c(-c3ccccc3)coc2c1` [Ipriflavone (Osteofix)] showed a relative cell viability of 0.823 ± 0.12. `CCCCOc1ccc(C(=O)Nc2ccc(F)cc2F)cc1` yielded a relative cell viability of 1.08 ± 0.038. As to `Nc1nc(OCc2cc(Br)cs2)c2[nH]cnc2n1` [Lomeguatrib], the relative cell viability worked out at 1.12 ± 0.035. For `Clc1ccc2nsnc2c1NC1=NCCN1` [Tizanidine HCl], the relative cell viability was 1.18 ± 0.021. Take `Cc1cc(Nc2cc(N3CCN(C)CC3)nc(Sc3ccc(NC(=O)C4CC4)cc3)n2)n[nH]1` [VX-680 (Tozasertib, MK-0457)]: the relative cell viability came out at 1.03 ± 0.014.
